Measured values published in PubChem BioAssay AID602393 (Broad Institute, 2012).
Out of some 350,000 compounds screened, about 7,000 (2%) were called active. Inconclusive means that the source gave no clear call. Such entries were picked first, then a sample of the others. No stated cut-off is given here; in the data, active means activation above about 40%; inconclusive means no clear call, values can overlap the other calls; inactive means below that. More than one record can exist for a structure, and the calls need not agree.

Experiment: raisers of Bmi1 knock-in reporter signal – mouse ES cells, Bmi1 luciferase knock-in, single point, esBAF inhibitor project, primary screen (AID 602393);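 further: 0% = median of the plate's neutral control wells and 100% = double that signal; a rise in the Bmi1 reporter signal indicates esBAF inhibition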
Details: 24 h, at 12.5 µM, active compounds read high, 100% = twice the neutral-well signal
With `CSc1ccc(Cn2nnc(C(=O)Nc3ccc(C)c(C)c3)c2N)cc1` the reporter increase was inconclusive: 40.1%. For `COc1ccc(-c2noc(N(C)CC(=O)Nc3cccc(C(F)(F)F)c3)n2)cc1`, the reporter increase was inconclusive: 44.8%. In the case of `CO[C@H]1CN(C)C(=O)c2ccc(NS(=O)(=O)c3cn(C)cn3)cc2OC[C@H](C)N(CC2CC2)C[C@H]1C`, the reporter increase is reported as inactive: -0.965%. With `O=C(C[C@@H]1CC[C@H](NC(=O)c2cccc(F)c2)[C@@H](CO)O1)NCc1ccc(Oc2ccccc2)cc1` the reporter increase was inactive: -7.85%. With `COCCCNc1ccn2nc(-c3ccc(OCCN4CCOCC4)cc3)cc2n1` the reporter increase was inconclusive: 41.7%. With `CCOC(=O)Nc1nnc(-c2ccc(OC)cc2)s1` the reporter increase was active: 79.1%. With `Cc1ccc(-c2csc(NC(=O)N3CCOCC3)n2)cc1` the reporter increase was active: 83.5%. For `C[C@H]1CN([C@@H](C)CO)S(=O)(=O)c2ccc(C#Cc3ccncc3)cc2O[C@H]1CN(C)C(=O)Nc1ccc2c(c1)OCO2`, the reporter increase was inactive: 14.4%. For `C[C@@H]1CN([C@@H](C)CO)C(=O)Cc2cc(NC(=O)C3CC3)ccc2O[C@@H]1CN(C)Cc1ccc2c(c1)OCO2`, the reporter increase was inactive: -3.56%. For `CO[C@H]1CN(C)C(=O)c2cc(C#N)ccc2OC[C@H]2O[C@@H](CC[C@H]2OC)CCN(C)C(=O)[C@@H]1C`, the reporter increase was inactive: -0.253%. In the case of `Cc1ccc(-c2nn(-c3ccccc3)cc2C=O)o1`, the reporter increase is reported as inconclusive: 44.2%. With `COc1ccc(NC(=S)c2ccc3ccccc3n2)cc1` the reporter increase was inconclusive: 45.1%. For `COC(=O)Cn1c2ccc(C)cc2c2nc3ccccc3nc21`, the reporter increase was inactive: 8.83%. With `COc1ccc(N2CCN(C(=O)c3ccc4c(c3)CCN4S(=O)(=O)c3ccccc3)CC2)cc1` the reporter increase was inactive: -1.62%. With `CCOC(=O)c1ccc(Nc2ncccc2[N+](=O)[O-])cc1` the reporter increase was inconclusive: 34.6%. With `O=c1c2c(nc3cc(-c4ccc(F)cc4)[nH]n13)CCCC2` the reporter increase was inactive: -49.6%. For `O=C(c1ccc([N+](=O)[O-])cc1)n1nc(-c2ccccc2)nc1NCc1ccccc1`, the reporter increase was inconclusive: 40.1%. With `COc1ccc(NC(=O)C(NC(=O)c2ccc(C)cc2)c2ccccc2)cc1` (stereo unspecified) the reporter increase was inconclusive: 43.3%. For `Cc1ccc(S(=O)(=O)Nc2ccccc2F)cc1C(=O)NNC(=O)c1ccccc1O`, the reporter increase was inconclusive: 42.5%. With `COc1ccc(C2CC(c3ccncc3)=NN2c2ccc(S(N)(=O)=O)cc2)cc1` (stereo unspecified) the reporter increase was active: 82.6%. With `Cc1ccc(NC(=O)c2ccccc2)cc1` the reporter increase was inconclusive: 47.5%. With `Cc1ccc(NC(=O)c2cc3ccccc3o2)cc1Cl` the reporter increase was inconclusive: 62.8%. In the case of `CCCn1c(=O)c2ccccc2n2c(SCc3nc4ccccc4s3)nnc12`, the reporter increase is reported as active: 42.5%. For `Cc1cccc(NC(=O)CN2C(=O)N/C(=C\c3ccc(-c4cccc(C(=O)O)c4)o3)C2=O)c1`, the reporter increase was inconclusive: 56.8%. With `Cc1noc(C)c1S(=O)(=O)Nc1ccc2c(c1)C(=O)N([C@H](C)CO)C[C@@H](C)[C@@H](CN(C)C(=O)c1ccccc1)OCCCC[C@@H](C)O2` the reporter increase was inactive: -2.45%. With `Nc1ncc(-c2cc3ccccc3oc2=O)s1` the reporter increase was active: 47.3%. In the case of `O=C(NCCC1=CCCCC1)C1CCN(C(=O)c2ccc(Cl)cc2)CC1`, the reporter increase is reported as inconclusive: 72.2%. With `CN1C(=O)NC(c2cccc(O)c2)C(C(=O)c2cccs2)C1(O)C(F)(F)F` (stereo unspecified) the reporter increase was inconclusive: 41.7%. In the case of `COc1cccc(-c2cnc(C(O)c3cccc(F)c3)[nH]2)c1` (stereo unspecified), the reporter increase is reported as inconclusive: 41.3%. For `CCCC(=O)Nc1ccc2nn(-c3ccc(OC)cc3)nc2c1`, the reporter increase was active: 50%. In the case of `Cc1cccc2c1ncc1c(=O)n(-c3ccccc3)[nH]c12`, the reporter increase is reported as inconclusive: 54.9%. In the case of `CC1=NN(C(N)=S)C(=O)C1N=Nc1cccc([N+](=O)[O-])c1` (stereo unspecified), the reporter increase is reported as inconclusive: 59.5%. With `CCn1c(C)csc1=NC(=O)c1ccccc1O` the reporter increase was inconclusive: 65.2%. With `Nc1ccc(Cl)c(-c2nc3ncccc3o2)c1` the reporter increase was inconclusive: 42.7%. In the case of `O=C1c2ccccc2C(=O)N1CCSC(=S)N1CCOCC1`, the reporter increase is reported as inconclusive: 53.9%. For `O=C1OC(c2ccccc2)=C/C1=C/N1CCCCC1`, the reporter increase was active: 83.9%. With `Cc1ccc(C(=O)c2ccc(O)cc2)cc1C` the reporter increase was inconclusive: 41.3%. With `CC1CCCC(NC(=O)c2ccc3c(c2)OCCO3)C1C` (stereo unspecified) the reporter increase was inconclusive: 45.8%. In the case of `COc1ccc(C)cc1-n1nnnc1SCc1nc2ccccc2s1`, the reporter increase is reported as active: 56.9%. For `CO[C@H]1CN(C)C(=O)c2cc(NS(=O)(=O)c3ccccc3Cl)ccc2OC[C@@H](C)NC[C@H]1C`, the reporter increase was inactive: -1.79%. In the case of `O=C(CSc1ccccc1)N1CCc2ccccc21`, the reporter increase is reported as inconclusive: 42.3%. For `COC(=O)c1ccccc1NC(=O)c1ccc(-c2ccccc2F)o1`, the reporter increase was inconclusive: 76.4%. For `COc1ccc(N=Cc2nc(-c3ccco3)oc2O)cc1`, the reporter increase was active: 63.1%. In the case of `COc1ccc(Cc2nnc(-c3ccccc3)o2)cc1`, the reporter increase is reported as inconclusive: 46.2%. With `CO[C@H]1CN(C)C(=O)c2ccc(NC(=O)c3cc(C)on3)cc2OC[C@H](C)N(CC2CC2)C[C@H]1C` the reporter increase was inactive: -2.39%. In the case of `Cc1csc(SCC(=O)c2c(N)n(C)c(=O)n(C)c2=O)n1`, the reporter increase is reported as inconclusive: 43.7%. In the case of `CCO[C@@H]1OC(C(=O)O)=C[C@H](C2CC2)[C@H]1CCCO`, the reporter increase is reported as inactive: 4.89%. In the case of `COc1ccccc1/C=N/n1c(N)c(S(=O)(=O)c2cccs2)c2nc3ccccc3nc21`, the reporter increase is reported as active: 41.4%. For `Cc1ccc(Cc2c(-c3cccc(Cl)c3)nc3ccc(Br)cn23)cc1`, the reporter increase was inconclusive: 43.6%. With `CCc1ccc(OCC(=O)NC2CCCCC2)c(Br)c1` the reporter increase was inconclusive: 46.7%. In the case of `C/C(N)=C(/C#N)C(=O)CSc1nnc(Nc2cccc(C)c2C)s1`, the reporter increase is reported as active: 85.7%. In the case of `C[C@@H]1CN([C@@H](C)CO)C(=O)c2cc(NC(=O)Nc3ccc4c(c3)OCO4)ccc2O[C@@H]1CN(C)Cc1ccc(Cl)c(Cl)c1`, the reporter increase is reported as inactive: 6.75%. In the case of `Cc1cc(C)n(-c2nnc(C)n2/N=C/c2ccco2)n1`, the reporter increase is reported as inactive: -6.4%. With `Nc1ccccc1-c1nc2ccccc2s1` the reporter increase was inconclusive: 41.8%. In the case of `COc1ccc(-n2nc3c(N4CCC(C(=O)NCc5ccccc5C)CC4)nnc(C)c3c2C)cc1`, the reporter increase is reported as inactive: 3.2%. With `Cc1cc(CN(C)C(=O)c2cc(COc3ccc(C)c(C)c3)on2)on1` the reporter increase was inconclusive: 46.7%. For `COc1cc(C(=O)Nc2cccc(-c3nnc(-c4ccco4)o3)c2)ccc1OC(C)=O`, the reporter increase was inconclusive: 27.8%. For `COc1ccc2nc(-c3ccccc3)[nH]c(=O)c2c1`, the reporter increase was active: 44.4%. For `COc1ccc(C(C[N+](=O)[O-])c2c(-c3ccccc3)cc3ccccn23)cc1` (stereo unspecified), the reporter increase was inconclusive: 46.3%. With `CC(=O)N(C)c1ccc(NC(=O)Nc2ccc(Cl)cc2)cc1` the reporter increase was inconclusive: 41.8%. For `C=CCNC(=O)C1CC(=O)N(c2ccc(OCc3ccc(F)cc3)cc2)C1` (stereo unspecified), the reporter increase was inconclusive: 40.4%. With `COc1cc(/C=C(/C(=O)c2cccs2)c2nc3ccccc3[nH]2)ccc1O` the reporter increase was inconclusive: 49.8%. With `Nc1cc2c(cc1Br)-c1ccc(F)cc1C2O` (stereo unspecified) the reporter increase was inconclusive: 42.6%. For `O=[N+]([O-])c1cc(/C=N\Nc2ccccn2)ccc1Cl`, the reporter increase was inconclusive: 47.8%. With `Cc1cccc(-c2noc(CSc3ccccc3)n2)c1` the reporter increase was active: 45.7%. For `O=[N+]([O-])c1ccc(-c2csc(NN=C3CCCC3)n2)cc1`, the reporter increase was inconclusive: 56.1%. In the case of `CN(c1ccccc1)c1nc(N)c([N+](=O)[O-])c(N2CCCC2)n1`, the reporter increase is reported as inconclusive: 43.9%. For `COc1ccc(NC(=O)CSc2nc(SC)ns2)c(OC)c1`, the reporter increase was inconclusive: 41.2%. With `O=C(Nc1cccc(-c2csc(Nc3cccc(C(F)(F)F)c3)n2)c1)c1cc([N+](=O)[O-])cc(C(F)(F)F)c1` the reporter increase was inactive: -11.8%. For `O=C(Nc1ccc(Cl)cc1Cl)c1ccc(Br)o1`, the reporter increase was inconclusive: 49.6%. In the case of `C[C@H](CO)N1C[C@H](C)[C@H](CN(C)Cc2ccncc2)OCCCC[C@H](C)Oc2ccc(N(C)C)cc2C1=O`, the reporter increase is reported as inactive: -0.528%. For `CC1CCN(C(=O)Nc2ccc3nsnc3c2)CC1`, the reporter increase was inconclusive: 41.9%. With `Cc1cccc(Nc2nc(N)nc(CSc3nccn3C)n2)c1` the reporter increase was active: 53%. In the case of `NC(=O)COc1ccc(C23CC4CC(CC(C4)C2)C3)cc1`, the reporter increase is reported as inconclusive: 45.9%. In the case of `C[C@@H]1CCCCO[C@@H](CN(C)C(=O)Nc2ccccc2)[C@@H](C)CN([C@@H](C)CO)C(=O)c2cc(NC(=O)Nc3ccc4c(c3)OCO4)ccc2O1`, the reporter increase is reported as inconclusive: 43.5%. In the case of `CSc1ccccc1NC(=O)C1CC(c2c(F)cccc2Cl)=NO1` (stereo unspecified), the reporter increase is reported as inconclusive: 42.5%. In the case of `CCCN1C[C@@H](C)[C@@H](OC)CN(C)C(=O)c2ccc(NC(=O)C3CC3)cc2OC[C@@H]1C`, the reporter increase is reported as inactive: 7.35%. With `CCN1C(=O)C(=O)N(CC(=O)c2cc(C)n(C3CC3)c2C)C1=O` the reporter increase was inconclusive: 42.6%. With `Cn1c(SCc2ccccc2)nnc1-c1cnccn1` the reporter increase was inconclusive: 43.7%. With `Cc1ccc(S(=O)(=O)Nc2ccc3c(c2)CC(=O)N([C@@H](C)CO)C[C@H](C)[C@H](CN(C)C(=O)Nc2c(C)noc2C)O3)cc1` the reporter increase was inactive: -6.29%. With `O=c1c2ccccc2nnn1CSc1nnc2ccccn12` the reporter increase was active: 46.9%. For `CCCC(=O)Nc1nnc(-c2cccc(OCC)c2)s1`, the reporter increase was inconclusive: 41.1%. With `CC1CC(C)CN(S(=O)(=O)c2ccc(C(=O)Nc3sccc3C(N)=O)cc2)C1` (stereo unspecified) the reporter increase was inactive: 9.86%. In the case of `CCOC(=O)N1CCN(C(=O)c2cc3ccc(OC)cc3[nH]2)CC1`, the reporter increase is reported as inconclusive: 44%. In the case of `O=C(COC(=O)c1cc2ccccc2oc1=O)Nc1cccc(S(=O)(=O)N2CCCCCC2)c1`, the reporter increase is reported as inconclusive: 44.4%. For `CC(C)C(=O)Nc1nc(-c2ccccc2)ns1`, the reporter increase was active: 55.8%.
